The list shows a part of the results.

First the molecules themselves.
B1: PhoQ; a variant is named by its letters at X, in order, P23837 (parent)
chain: MKKLLRLFFPLSLRVRFLLATAAVVLVLSLAYGMVALIGYSVSFDKTTFRLLRGESNLFYTLAKWENNKLHVELPENIDKQSPTMTLIYDENGQLLWAQRDVPWLMKMIQPDWLKSNGFHEIEADVNDTSLLLSGDHSIQQQLQEVREDDDDAEMTHSVAVNVYPATSRMPKLTIVVVDTIPVELKSSYMVWSWFIYVLSANLLLVIPLLWVAAWWSLRPIEALAKEVRELEEHNRELLNPATTRELTSLVRNLNRLLKSERERYDKYRTTLTDLTHSLKTPLXXLQXXLRSLRSEKMSVSDAEPVMLEQISRISQQIGYYLHRASMRGGTLLSRELHPVAPLLDNLTSALNKVYQRKGVNISLDISPEISFVGEQNDFVEVMGNVLDNACKYCLEFVEISARQTDEHLYIVVEDDGPGIPLSKREVIFDRGQRVDTLRPGQGVGLAVAREITEQYEGKIVAGESMLGGARMEVIFGRQHSAPKDE

The variants in this assay derive from B1. Briefly: enrichment ratio after two sorts for PhoP signalling (ratio (wild type AVST 3.29)); higher = more functional. Conditions: with PhoP (E. coli).
Turning to VRFI, the enrichment ratio is ≤ 0.25. Then KHPQ, with ≤ 0.25; and VCHE, with ≤ 0.25. The figure for SSKE is ≤ 0.25. Take QDRK: the enrichment ratio is ≤ 0.25. As for KFVS, the enrichment ratio was ≤ 0.25. Then LKLF, with ≤ 0.25.

For VRLW, the enrichment ratio was ≤ 0.25. The figure for NDMV is 1.88; for VEAR it is ≤ 0.25. TLRG: the enrichment ratio is ≤ 0.25. With TLMD, the enrichment ratio is ≤ 0.25. The figure for NWRV is ≤ 0.25. Then QYNM, with ≤ 0.25; and RGHR, with ≤ 0.25. The figure for RDKV is ≤ 0.25. Consider RKNC, for which the enrichment ratio is ≤ 0.25. Consider RWVA, for which the enrichment ratio was ≤ 0.25. Then KYES, with ≤ 0.25; and LQFW, with ≤ 0.25. The figure for RENS is ≤ 0.25; for HTDV it is ≤ 0.25; for QKWN it is ≤ 0.25.

On to HIWF, for which the enrichment ratio was ≤ 0.25. The figure for MSRC is ≤ 0.25; for CSFP it is ≤ 0.25.

Take PESD: the enrichment ratio is ≤ 0.25. Then FYSR, with ≤ 0.25; and TWNA, with ≤ 0.25; and LRKT, with ≤ 0.25.

Consider FNFL, for which the enrichment ratio is ≤ 0.25. RLGI: the enrichment ratio was ≤ 0.25. Then SGNV, with 1.81; and FDHN, with ≤ 0.25; and SGKQ, with ≤ 0.25.

On to LYRN, for which the enrichment ratio was ≤ 0.25. As to LDQT, the enrichment ratio is ≤ 0.25. On to ARIR, for which the enrichment ratio is ≤ 0.25.

Turning to QLHA, the enrichment ratio is ≤ 0.25.

Take TVLN: the enrichment ratio is ≤ 0.25. The figure for QARY is ≤ 0.25; for SNHL it is ≤ 0.25. Then RATY, with ≤ 0.25; and ADLQ, with 3.02; and SEYY, with 4.69.

Consider WSLW, for which the enrichment ratio is ≤ 0.25. Then GRGS, with ≤ 0.25; and MECT, with 9.55; and IRYD, with ≤ 0.25. Consider EHMS, for which the enrichment ratio was ≤ 0.25. Then YAWI, with ≤ 0.25. The figure for NTPC is ≤ 0.25; for ITKA it is ≤ 0.25.

With VIQY, the enrichment ratio is ≤ 0.25.

As to MQEH, the enrichment ratio is ≤ 0.25. The figure for LFSI is ≤ 0.25; for ITRG it is ≤ 0.25.

TYCH: the enrichment ratio was determined as 2.52.

On to ERQP, for which the enrichment ratio is ≤ 0.25. Then YMLC, with ≤ 0.25.

AVTM: the enrichment ratio was determined as 12.4. Take FANH: the enrichment ratio was ≤ 0.25. For the variant VHDA, the enrichment ratio was ≤ 0.25.

For the variant SRRY, the enrichment ratio was ≤ 0.25.

For VFIG, the enrichment ratio is ≤ 0.25. Then LCFF, with ≤ 0.25.

DSVR: the enrichment ratio was ≤ 0.25. As to DKRL, the enrichment ratio was ≤ 0.25.

Consider GNGS, for which the enrichment ratio is ≤ 0.25. The figure for PFMA is ≤ 0.25; for NCDL it is ≤ 0.25; for KITW it is ≤ 0.25. The figure for NGYM is ≤ 0.25. Turning to RYPY, the enrichment ratio is ≤ 0.25. Then YNFN, with ≤ 0.25; and FMDF, with ≤ 0.25. On to QHPL, for which the enrichment ratio is ≤ 0.25. The figure for AFWW is ≤ 0.25; for PYAM it is ≤ 0.25; for FEWR it is ≤ 0.25. The figure for ASWI is 2.59; for STYP it is ≤ 0.25; for NMHN it is ≤ 0.25.

For VSPW, the enrichment ratio was ≤ 0.25.

As to NDWV, the enrichment ratio is ≤ 0.25. The figure for SHAD is ≤ 0.25; for FRWS it is ≤ 0.25; for QDGC it is ≤ 0.25. The figure for EVYS is ≤ 0.25. The figure for NVRR is ≤ 0.25; for HIYL it is 0.291; for EYKE it is ≤ 0.25. For the variant RNVS, the enrichment ratio was ≤ 0.25. For VENL, the enrichment ratio was ≤ 0.25. In the case of DQYT, the enrichment ratio was ≤ 0.25.

With IGWY, the enrichment ratio is ≤ 0.25.

In the case of RTNC, the enrichment ratio was ≤ 0.25. The figure for IIVF is ≤ 0.25; for DKSE it is ≤ 0.25; for VIDY it is ≤ 0.25. The figure for NICI is ≤ 0.25; for RLIW it is ≤ 0.25.

DWGM: the enrichment ratio was ≤ 0.25.

Regarding MGMC, the enrichment ratio stood at 5.27. Then HNSN, with ≤ 0.25.

In the case of TAMM, the enrichment ratio is 2.2. The figure for FVSK is ≤ 0.25.

Regarding QCHV, the enrichment ratio was ≤ 0.25. The figure for VKHF is ≤ 0.25. The figure for YIIQ is ≤ 0.25; for DLFT it is ≤ 0.25.

With QWNI, the enrichment ratio is ≤ 0.25.

With DKAL, the enrichment ratio was ≤ 0.25. Then AYSR, with ≤ 0.25. Then RRDS, with ≤ 0.25.

In the case of EAFI, the enrichment ratio was ≤ 0.25.

With PMAI, the enrichment ratio was ≤ 0.25.

Regarding LMMP, the enrichment ratio is ≤ 0.25. With VCSI, the enrichment ratio worked out at 1.75. Then IPPR, with ≤ 0.25. The figure for RYAT is ≤ 0.25. For the variant QAMT, the enrichment ratio was ≤ 0.25.

Take PNHA: the enrichment ratio is ≤ 0.25.

For the variant DGMQ, the enrichment ratio is ≤ 0.25. Then HSIR, with ≤ 0.25.

Turning to GLKV, the enrichment ratio is ≤ 0.25. The figure for KAAN is ≤ 0.25. The figure for CHFH is ≤ 0.25.

In the case of QIYG, the enrichment ratio was ≤ 0.25. The figure for LNIL is ≤ 0.25. The figure for TDFL is ≤ 0.25; for PTKY it is ≤ 0.25. The figure for FWTY is ≤ 0.25; for GGGF it is ≤ 0.25.

Consider YNYC, for which the enrichment ratio is ≤ 0.25. Then RKAK, with ≤ 0.25; and WLYT, with ≤ 0.25. Then ARWW, with ≤ 0.25. Then HSKM, with ≤ 0.25; and PVRQ, with ≤ 0.25. For the variant TRPR, the enrichment ratio is ≤ 0.25. Then IVMH, with ≤ 0.25; and GTYG, with ≤ 0.25; and NTLQ, with ≤ 0.25.

Take VPPV: the enrichment ratio is ≤ 0.25. The figure for WFWV is ≤ 0.25. On to YIHT, for which the enrichment ratio is ≤ 0.25. The figure for DQWN is ≤ 0.25; for KKWM it is ≤ 0.25; for AYEF it is ≤ 0.25.

For TNKY, the enrichment ratio is ≤ 0.25. The figure for HEWP is ≤ 0.25; for DVGK it is ≤ 0.25.

These data come from a collection of fitness landscapes (doi:10.1126/science.1257360).
